Measured values: the supplement of paper PMC7125110
± gives the standard error. Variants at the floor of the assay are shown more often than the library holds them.

B1: glmS ribozyme (parent)
chain: AUAAAAGCGCCAGAACUACAGAAAUGUAGUUGACGAGGAGGAGGUUUAUCGAAUUUUCGGCGGAUGCCUCCAAA

Experiments:
Conditions in all cases: with glucosamine-6-phosphate
glucosamine-6-phosphate [1] = variants of: B1; assay: self-cleavage kobs at 640 uM GlcN6P; higher = faster cleavage; RNA array
Method in brief: (§1)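 Using a hybridised Cy3 probe at 37 °C, barcoded ribozyme variants transcribed in situ by E. coli RNA polymerase on sequenced MiSeq chips were monitored across tiles imaged over ~14 h. The flow contained glucosamine-6-phosphate from 40 μM to 10 mM in HEPES/KCl/Mg(OAc)2 buffer. Signals were normalised to baseline and to non-cleaving reference variants before per-tile medians were fit to one- or two-exponential decays to yield kobs. Weighted Michaelis–Menten fits across concentrations gave kcat and KM.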

glucosamine-6-phosphate [2] = variants of: B1; assay: self-cleavage kobs at 2500 uM GlcN6P; higher = faster cleavage; RNA array
Method in brief: as §1

glucosamine-6-phosphate [3] = variants of: B1; assay: self-cleavage kobs at 10000 uM GlcN6P; higher = faster cleavage; RNA array
Method in brief: as §1

glucosamine-6-phosphate [4] = variants of: B1; assay: self-cleavage kobs at 160 uM GlcN6P; higher = faster cleavage; RNA array
Method in brief: as §1

Row | Variant | self-cleavage kobs at 640 uM GlcN6P (glucosamine-6-phosphate [1]) [s⁻¹] | self-cleavage kobs at 2500 uM GlcN6P (glucosamine-6-phosphate [2]) [s⁻¹] | self-cleavage kobs at 10000 uM GlcN6P (glucosamine-6-phosphate [3]) [s⁻¹] | self-cleavage kobs at 160 uM GlcN6P (glucosamine-6-phosphate [4]) [s⁻¹]
1 | C16U G37A U54C | 0.000373 ± 8.1e-05 | 0.000599 ± 0.00013 | 0.00176 ± 0.00031 | –
2 | G29C U49C | < 1e-05 | < 1e-05 | < 1e-05 | –
3 | C16A A52G G63U G66U | < 1e-05 | – | – | < 1e-05
4 | U30G G32U G43U G51A C67G | < 1e-05 | – | – | –
5 | A15G G38U G59C | < 1e-05 | – | – | –
6 | G29A A39C G43C U57C | < 1e-05 | – | – | –
7 | C16U G40C U57G C67G | < 1e-05 | < 1e-05 | – | < 1e-05
8 | C16U A39U | 0.00392 ± 0.00055 | 0.0111 ± 0.0017 | 0.034 ± 0.0081 | 0.00114 ± 0.00038
9 | A15G A33U A42C | < 1e-05 | – | – | –
10 | U30G A33U G51C | < 1e-05 | < 1e-05 | – | –
11 | G29U G44A G63A U65C C67U | < 1e-05 | < 1e-05 | – | < 1e-05
12 | A14U G62U U69A | < 1e-05 | – | – | –
13 | U30C A42C U55C | < 1e-05 | – | – | –
14 | U30G U46G A52U U55A | < 1e-05 | – | – | –
15 | U30A A36C U45G | < 1e-05 | – | – | –
16 | A15U A42C C70A | < 1e-05 | < 1e-05 | – | –
17 | C16U A42U U45C C68G | < 1e-05 | – | – | –
18 | G29A U46G | 0.000243 ± 4.1e-05 | 0.000425 ± 7.7e-05 | 0.00128 ± 0.00027 | 5.62e-05 ± 1.3e-05
19 | G29C A39C G44A A53U | < 1e-05 | – | – | < 1e-05
20 | A15G U56C C67G C70A | < 1e-05 | < 1e-05 | – | –
21 | U30G U56A C68G | 5.24e-05 ± 2.3e-05 | – | – | –
22 | A15C U30A G40C C61U | < 1e-05 | < 1e-05 | – | –
23 | G29A G32C C61U | < 1e-05 | – | – | –
24 | A15U A53G G63C | < 1e-05 | – | – | –
25 | G29A G43A U56A | < 1e-05 | – | – | –
26 | C16U A36C A42G | < 1e-05 | < 1e-05 | < 1e-05 | –
27 | C16A G43U G63C C68U | < 1e-05 | < 1e-05 | – | < 1e-05
28 | U30A G41A U49C | < 1e-05 | – | – | < 1e-05
29 | A15C G41U A52G C71G | < 1e-05 | < 1e-05 | – | –
30 | A15C U30G U31G | 0.0146 ± 0.0069 | 0.00946 ± 0.0035 | – | 0.00201 ± 0.00083
